In the supplement of paper PMC12217912:
This is one part of the list. The full chains were built here from the parent and the listed change. Inactive controls read about 0.05.

B1: TEV protease; numbered along this chain (parent)
chain: MGESLFKGPRDYNPISSSICHLTNESDGHTTSLYGIGFGPFIITNKHLFRRNNGTLVVQSLHGVFKVKDTTTLQQHLVDGRDMIIIRMPKDFPPFPQKLKFREPQREERICLVTTNFQTKSMSSMVSDTSCTFPSGDGIFWKHWIQTKDGQCGSPLVSTRDGFIVGIHSASNFTNTNNYFTSVPKNFMELLTNQEAQQWVSGWRLNADSVLWGGHKVFMVKPEEPFQPVKEATQL

Variants of: B1
Test: raw area under fraction-flipped curve 0-4 h after induction (AUC4h, not background-subtracted), DNA-recorder readout of cleavage of the substrate (dimensionless); higher = more cleavage of the substrate by the protease variant
Settings: temperature: 34 °C; time window: 0-4 h after rhamnose induction
Description: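 In vivo DNA recorder in E. coli TOP10(DE3) ΔrhaA at 34 °C. Each TEVp single-site mutant (parent TEVp 0) is paired with a single-site variant of the 7-mer TEVs (canonical ENLYFQ|S). The substrate sits between flexible linkers in a Bxb1-sfGFP-TEVs-SsrA fusion, so cleavage stabilises Bxb1 and speeds flipping of a recombination array, read by NGS. The value is the raw area under the fraction-flipped curve over 0-4 h after rhamnose induction (AUC4h), with ≥20 reads per time point. It is not background-subtracted; inactive controls average about 0.047.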
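Further: Bxb1 expression induced with 0.2% (w/v) L-rhamnose at OD600 near 0.5, cultures sampled hourly, flipped fraction per protease–substrate barcode pair counted by paired-end Illumina sequencing.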

Variant | area with substrate ENLYEQS | area with substrate ENLYHQS | area with substrate ENLYMQS | area with substrate ENLYNQS | area with substrate ENLYPQS | area with substrate ENLYQQS | area with substrate ENLYRQS | area with substrate ENLYVQS | area with substrate ENLYWQS | area with substrate ENLYYQS | area with substrate ENLYDQS | area with substrate ENLYGQS | area with substrate ENLYKQS | area with substrate ENLYSQS | area with substrate ENLYIQS | area with substrate ENLYTQS | area with substrate ENLYLQS
Q227V | 0.0639 | 0.0684 | 0.0719 | 0.0742 | 0.0805 | 0.0637 | 0.0497 | 0.157 | 0.0674 | 0.0703 |  |  |  |  |  |  | 
K98A | 0.0754 | 0.0795 |  | 0.0813 | 0.0516 | 0.0499 |  | 0.0993 |  | 0.0073 | 0.0572 | 0.0548 | 0.0458 | 0.113 |  |  | 
S127K | 0.0561 | 0.0512 | 0.0923 | 0.0626 | 0.0928 | 0.0589 |  | 0.102 | 0.062 |  | 0.0594 | 0.0715 | 0.0569 |  | 0.159 |  | 
V165T | 0.0544 | 0.0564 | 0.0743 |  | 0.0647 |  |  | 0.107 | 0.0622 |  | 0.0537 | 0.0045 | 0.0288 | 0.0529 | 0.0748 |  | 
E223I | 0.0704 | 0.0645 | 0.0533 | 0.07 | 0.067 |  |  | 0.0808 | 0.0783 | 0.0682 |  | 0.0629 | 0.0542 |  | 0.105 |  | 
R106A | 0.0441 | 0.066 | 0.1 | 0.0765 | 0.0628 |  | 0.0505 | 0.0848 | 0.069 |  | 0.0765 |  | 0.0528 | 0.0853 | 0.0991 |  | 
M188P | 0.0668 | 0.091 |  |  | 0.0476 |  |  | 0.111 | 0.0796 |  |  | 0.0343 | 0.0566 |  |  | 0.0733 | 
I84G | 0.0513 | 0.0524 | 0.061 | 0.0485 | 0.0683 |  | 0.0408 |  |  |  |  | 0.0399 | 0.0428 | 0.0764 | 0.0653 |  | 0.0563
S26L | 0.0591 | 0.0602 |  | 0.0585 | 0.0256 |  |  | 0.054 |  | 0.06 |  | 0.0488 | 0.0624 | 0.0579 | 0.0803 | 0.059 | 
I167A | 0.0659 | 0.0547 |  | 0.0571 |  |  |  |  | 0.0632 | 0.0634 | 0.0478 | 0.0582 |  |  |  | 0.0654 | 
V229F | 0.0707 | 0.07 | 0.0876 | 0.0683 | 0.0672 | 0.0697 |  | 0.105 | 0.113 | 0.0688 | 0.0558 | 0.0803 | 0.0892 | 0.0764 | 0.0844 |  | 
K230D |  | 0.0685 |  | 0.0671 | 0.0742 |  | 0.0646 | 0.125 | 0.117 | 0.0771 | 0.0542 | 0.0595 | 0.0791 |  | 0.115 | 0.0871 | 
K230N | 0.0489 | 0.0608 | 0.0641 | 0.0797 | 0.0698 |  | 0.0567 | 0.133 |  |  | 0.0813 | 0.0623 | 0.0791 | 0.0859 | 0.16 |  | 
F140G | 0.0576 | 0.0614 |  | 0.0577 | 0.0651 |  |  | 0.0648 | 0.0521 |  | 0.0561 | 0.0648 | 0.0475 | 0.0661 |  |  | 0.0646
Q194F | 0.0801 | 0.0616 |  | 0.0655 |  | 0.0586 | 0.0306 | 0.111 | 0.066 | 0.0639 |  | 0.0613 | 0.051 | 0.0697 | 0.0917 |  | 
L205G | 0.0636 | 0.0597 |  | 0.0614 | 0.0705 | 0.0639 | 0.0706 | 0.0631 |  | 0.0779 | 0.0645 | 0.0571 | 0.0284 | 0.068 | 0.0677 | 0.0479 | 0.0665
M88A | 0.0651 | 0.0608 |  | 0.0666 | 0.0778 | 0.0771 | 0.063 |  |  | 0.0602 | 0.0514 |  | 0.0514 |  | 0.0844 |  | 
F180N | 0.0613 | 0.0547 | 0.0449 | 0.0567 | 0.0486 |  | 0.0708 |  | 0.0446 |  | 0.0575 | 0.0579 | 0.0483 |  | 0.0587 |  | 
I145K | 0.0588 | 0.0555 | 0.0565 | 0.0514 | 0.0628 | 0.051 |  | 0.0615 |  | 0.0457 | 0.0562 | 0.0691 | 0.0537 | 0.0476 | 0.0532 |  | 
G37W | 0.05 | 0.0511 | 0.0595 | 0.0597 | 0.063 |  | 0.0714 | 0.0665 | 0.0204 |  |  | 0.0608 | 0.0199 | 0.0687 |  | 0.07 | 0.0561
Q146K | 0.0685 | 0.061 | 0.0821 | 0.0678 | 0.0739 | 0.0473 | 0.0571 | 0.118 | 0.0794 |  | 0.0585 | 0.0557 | 0.0628 | 0.0422 |  |  | 0.0857
S201R | 0.0788 | 0.0833 | 0.107 | 0.0579 |  | 0.0687 | 0.0801 | 0.0988 |  | 0.0588 | 0.066 | 0.072 | 0.0546 | 0.0762 | 0.109 |  | 
L211Q | 0.0794 | 0.0727 | 0.0979 | 0.0746 | 0.0809 | 0.0599 |  |  | 0.112 |  | 0.0655 | 0.0275 |  | 0.0736 |  | 0.0689 | 0.0906
